Reference: publication PMC9795039, “Kindlin2 enables EphB/ephrinB bi-directional signaling to support vascular development” (Life Science Alliance, 2022)
Substitutions are numbered along the chain they refer to. No constants are given. Whether binding was seen depends on the method and setting. For some of these results: In cells and extracts the contact can be indirect. Some entries that bind do so weakly or less than the wild type. For some of these results: Where a sequence is shown, tags or fusion partners need not be part of it.

Chains of the proteins cited; added tags and fusions are not shown. Lines headed by an entry give the natural chain unless they say otherwise; changes in a name come on top. Residues count along the entry.
UniProt P05556, residues 752-798: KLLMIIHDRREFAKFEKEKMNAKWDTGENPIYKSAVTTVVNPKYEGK
UniProt P54760, residues 16-987: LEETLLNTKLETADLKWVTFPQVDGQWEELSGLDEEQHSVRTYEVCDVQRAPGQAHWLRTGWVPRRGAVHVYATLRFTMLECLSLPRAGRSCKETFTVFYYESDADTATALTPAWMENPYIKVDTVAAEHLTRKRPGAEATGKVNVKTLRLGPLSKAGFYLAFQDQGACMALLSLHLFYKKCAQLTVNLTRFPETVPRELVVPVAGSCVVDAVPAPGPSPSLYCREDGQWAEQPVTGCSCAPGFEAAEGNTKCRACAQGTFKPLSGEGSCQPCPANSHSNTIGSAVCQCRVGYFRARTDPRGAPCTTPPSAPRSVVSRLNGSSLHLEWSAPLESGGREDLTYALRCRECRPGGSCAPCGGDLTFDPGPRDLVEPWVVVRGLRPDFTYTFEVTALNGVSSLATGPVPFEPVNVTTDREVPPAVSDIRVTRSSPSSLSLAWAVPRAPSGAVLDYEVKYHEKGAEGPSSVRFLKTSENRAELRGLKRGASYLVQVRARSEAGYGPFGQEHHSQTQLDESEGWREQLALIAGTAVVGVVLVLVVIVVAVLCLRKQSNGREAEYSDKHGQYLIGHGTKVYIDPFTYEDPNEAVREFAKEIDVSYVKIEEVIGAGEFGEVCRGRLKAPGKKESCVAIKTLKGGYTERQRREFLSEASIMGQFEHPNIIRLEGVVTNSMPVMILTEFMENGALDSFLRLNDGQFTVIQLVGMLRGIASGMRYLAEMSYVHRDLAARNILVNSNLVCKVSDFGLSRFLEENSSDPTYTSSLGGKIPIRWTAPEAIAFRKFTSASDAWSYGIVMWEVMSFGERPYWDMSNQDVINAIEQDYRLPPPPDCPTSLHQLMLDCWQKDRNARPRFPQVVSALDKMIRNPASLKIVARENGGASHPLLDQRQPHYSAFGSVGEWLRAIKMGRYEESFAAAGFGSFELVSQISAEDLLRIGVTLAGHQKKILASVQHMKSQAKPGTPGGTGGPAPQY
UniProt Q96AC1: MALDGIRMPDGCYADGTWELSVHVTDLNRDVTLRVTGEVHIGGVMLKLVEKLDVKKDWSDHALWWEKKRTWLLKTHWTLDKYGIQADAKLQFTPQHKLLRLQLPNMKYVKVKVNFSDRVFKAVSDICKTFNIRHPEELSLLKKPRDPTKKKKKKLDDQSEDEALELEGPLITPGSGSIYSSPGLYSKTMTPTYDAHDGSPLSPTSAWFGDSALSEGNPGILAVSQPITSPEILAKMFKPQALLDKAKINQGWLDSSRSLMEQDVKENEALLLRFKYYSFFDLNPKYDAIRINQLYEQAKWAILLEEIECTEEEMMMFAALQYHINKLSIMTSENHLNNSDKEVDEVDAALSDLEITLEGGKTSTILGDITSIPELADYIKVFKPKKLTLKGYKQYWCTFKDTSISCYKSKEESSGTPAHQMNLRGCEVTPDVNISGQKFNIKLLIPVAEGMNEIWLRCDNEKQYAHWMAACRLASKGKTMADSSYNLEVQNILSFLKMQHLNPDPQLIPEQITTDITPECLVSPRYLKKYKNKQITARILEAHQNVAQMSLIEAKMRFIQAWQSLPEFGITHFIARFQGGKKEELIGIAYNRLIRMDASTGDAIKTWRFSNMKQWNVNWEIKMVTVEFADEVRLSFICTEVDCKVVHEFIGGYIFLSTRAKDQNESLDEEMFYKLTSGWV
UniProt Q86UX7: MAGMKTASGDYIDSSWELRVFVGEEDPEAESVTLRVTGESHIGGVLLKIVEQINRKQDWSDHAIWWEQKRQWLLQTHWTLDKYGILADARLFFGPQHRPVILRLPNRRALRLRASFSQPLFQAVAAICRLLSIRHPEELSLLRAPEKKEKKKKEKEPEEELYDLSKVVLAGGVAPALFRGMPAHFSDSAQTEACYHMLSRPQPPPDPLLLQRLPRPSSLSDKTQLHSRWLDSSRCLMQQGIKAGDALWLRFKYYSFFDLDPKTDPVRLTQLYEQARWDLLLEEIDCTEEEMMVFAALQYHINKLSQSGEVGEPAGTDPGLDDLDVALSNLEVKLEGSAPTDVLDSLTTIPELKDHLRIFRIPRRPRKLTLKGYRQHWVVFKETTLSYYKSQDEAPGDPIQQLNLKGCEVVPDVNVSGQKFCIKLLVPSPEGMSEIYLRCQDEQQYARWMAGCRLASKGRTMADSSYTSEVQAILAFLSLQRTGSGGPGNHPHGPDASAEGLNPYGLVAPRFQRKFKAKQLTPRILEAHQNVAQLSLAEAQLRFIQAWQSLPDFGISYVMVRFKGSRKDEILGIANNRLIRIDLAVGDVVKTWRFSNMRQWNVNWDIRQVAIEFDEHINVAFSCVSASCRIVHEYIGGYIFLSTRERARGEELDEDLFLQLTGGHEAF

Columns and labels:
[1] = target: T1, his/Avi-tagged cytoplasmic tail of ephrinB2 4A (UniProt P52799); experiment: pull-down; purified his/Avi-tagged cytoplasmic tails (5 µg) immobilised on NeutrAvidin beads, incubated with lysate of cells expressing the GFP-tagged protein at 4°C for 1 h in 50 mM Tris-Cl, 150 mM NaCl, 0.5% NP-40, 0.5% Triton X-100, 0.5 mM CaCl2, 0.5 mM MgCl2, pH 7.4; Western blot with anti-GFP antibody; only the target purified
T1 sequence (chain, biotinylated): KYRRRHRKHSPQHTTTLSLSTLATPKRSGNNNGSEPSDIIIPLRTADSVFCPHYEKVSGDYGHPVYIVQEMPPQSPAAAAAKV

[2] = target: T2, his/Avi-tagged cytoplasmic tail of ephrinB3 (UniProt Q15768); experiment: as above
T2 sequence (chain, biotinylated): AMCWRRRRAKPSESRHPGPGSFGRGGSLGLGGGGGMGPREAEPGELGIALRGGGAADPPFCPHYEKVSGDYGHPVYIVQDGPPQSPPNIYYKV

[3] = target: his/Avi-tagged cytoplasmic tail of integrin β1A (UniProt P05556); experiment: as above
[4] = target: T3, his/Avi-tagged cytoplasmic tail of ephrinB2 WT (UniProt P52799); experiment: as above
T3 sequence (chain, biotinylated): T1 sequence (chain, biotinylated) with A78N, A79I, A80Y, A81Y

[5] = target: T4, his/Avi-tagged cytoplasmic tail of ephrinB1 (UniProt P98172); experiment: as above
T4 sequence (chain, biotinylated): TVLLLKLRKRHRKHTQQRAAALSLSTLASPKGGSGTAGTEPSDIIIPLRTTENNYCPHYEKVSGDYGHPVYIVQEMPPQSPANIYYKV

HA-EphB4 [6] = target: HA-EphB4 (UniProt P54760); experiment: co-IP; cells co-transfected with HA-EphB4 and flag-ephrinB2 WT or 6A; immunoprecipitation with anti-HA antibody, blot with anti-flag antibody
HA-EphB4 [7] = target: HA-EphB4 (UniProt P54760); experiment: co-IP; BT16 stable cells (flag-ephrinB2) and HEK293 stable cells (HA-EphB4) mixed and co-cultured, lysed in NP-40 lysis buffer; immunoprecipitation with anti-HA antibody, blots with anti-HA and anti-flag antibodies; also after kindlin2 shRNA in BT16 or integrin β1 shRNA in HEK293
[8] = target: T1, his/Avi-tagged cytoplasmic tail of ephrinB2 4A; experiment: pull-down; in vitro binding assay: purified kindlin2 mixed with purified cytoplasmic tails immobilised on NeutrAvidin beads; Western blot with anti-kindlin2 antibody; both purified
[9] = target: flag-ephrinB2 (4A) (human) (UniProt P52799); experiment: co-IP; mCherry-kindlin2 co-transfected with flag-tagged proteins in HEK293 cells; immunoprecipitation with anti-flag antibody, blot with anti-mCherry antibody
flag-ephrinB2 (human) = flag-ephrinB2 (human) (UniProt P52799); experiment: as above
[10] = target: T5, cytoplasmic tail of zebrafish ephrinB2a 4A (zebrafish) (UniProt O73874); experiment: pull-down; purified his/Avi-tagged cytoplasmic tails (5 µg) immobilised on NeutrAvidin beads, incubated with lysate of cells expressing the GFP-tagged protein at 4°C for 1 h in 50 mM Tris-Cl, 150 mM NaCl, 0.5% NP-40, 0.5% Triton X-100, 0.5 mM CaCl2, 0.5 mM MgCl2, pH 7.4; Western blot with anti-GFP antibody; only the target purified
T5 sequence: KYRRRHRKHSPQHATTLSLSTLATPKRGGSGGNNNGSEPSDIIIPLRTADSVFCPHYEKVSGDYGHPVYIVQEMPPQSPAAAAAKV

[11] = target: T6, cytoplasmic tail of zebrafish ephrinB2a WT (zebrafish) (UniProt O73874); experiment: as above
T6 sequence: T5 sequence with A81N, A82I, A83Y, A84Y

GFP-kindlin2 (from UniProt Q96AC1 1-680)
binding [1]: binds weakly
binding [2]: binds
binding [3]: binds
binding [4]: binds
binding [5]: binds

GFP-kindlin2 W615A (from UniProt Q96AC1 1-680)
binding [4]: binds

flag-ephrinB2 6A (from UniProt P52799 28-333) (ligand)
binding (HA-EphB4 [6]): no binding

flag-ephrinB2 (BT16 stable cells) (from UniProt P52799 28-333) (ligand)
binding (HA-EphB4 [7]): binds

flag-ephrinB2 (from UniProt P52799 28-333) (ligand)
binding (HA-EphB4 [6]): binds

his-tagged human full-length kindlin2 (from UniProt Q96AC1 1-680)
binding [8]: binds weakly

kindlin3 (from UniProt Q86UX7 1-667)
binding [1]: binds
binding [4]: binds

mCherry-kindlin2 (from UniProt Q96AC1 1-680)
binding [9]: no binding
binding (flag-ephrinB2 (human)): binds

B1: GFP-zebrafish kindlin2 (protein, UniProt F1Q8X5 1-684)
chain: MALDGIRMPDGCYADGTWELKMHVTDLNRDVSLRVTGEIHIGGVMLKLVEKLDVKKDWSDHALWWEKKKTWLLKTHWTLDKYGIQADARLLFTPQHKLLRLQLPNMKHMRVKVNFSDRVFKAVSDICKTFNIRHPEELSLLRKPRDPKKKKKKLEDAEEETLELEGPLLTPGSGSIYSSPGLYSKTMTPTYDSRDGSPLSPTSAWFGDSPLSEGNPSILAVSQPITSPDILVKMYKPQSLLDKAKINQGWLDSSRSLMEQDVKENEVLLLRFKYHSFFDLNPKYDAIRVNQLYEQAKWAILLEEIECTEEEMMMFAALQYHINKLSIMSSDNHMNNSEKEVDEVDAALSDLEITLEGGKTSNTLGDITSIPELADYVKVFKPKKLTLKGYKQYWCTFKDITISCYKSREEAHGTPAHQMNLRGCEVTPDVNISGQKFNIKLLIPVADGMNEIWLRCDTEKQYAQWMAACRLASKGKTMADSSYNLEVQNILSFLKMQHMNPDPQIIEPITTDINPECLVSPRYLKKYKNKQPGFVRDLISARILEAHQNVAQMSLIEAKMRFIQAWQSLPEFGITHFLAKFQGGKKDELIGITYNRLIRMDAGTGDAIKTWRFSNMKQWNVNWEIKMVTVEFADEPSLAFICAEVDCKVVHEFIGGYIFLSTRAKDQNESLDEEMFYKLTSGWV
binding [10]: no binding
binding [11]: binds
